Experimental data from US6531496B1 (Bayer Aktiengesellschaft, priority 1999, dated 2003).
For part of these data: At least one read-out could not be matched to a standard name with certainty. Some entries share one result that the patent states for a list of compounds. Some ranges recur; such a range may be that of the whole group of compounds.

Experiments:
[1] = system: green peach aphid (Myzus persicae); experiment: Myzus test; assay type: in vivo; conditions: no concentration or time printed
Protocol: Solvent: 6 parts by weight of dimethylformamide
67 parts by weight of methanol
Emulsifier: 2 parts by weight of alkylaryl polyglcol ether
To prepare a suitable active compound preparation, 1 part by weight of active compound is mixed with the stated amount of solvent and the stated amount of emulsifier, and the concentrate is diluted with emulsifier-containing water to the desired concentrations.
Field bean (Vicia faba) seedlings which are infested with the green peach aphid (Myzus persicae) are immersed into an active compound preparation of the desired concentration and placed into a plastic box.
After the desired period of time, the destruction is determined in %. 100% means that all the animals have been killed; 0% means that none of the animals have been killed.

[2] = system: Plasmopara viticola; experiment: Plasmopara test (grapevine)/protective; assay type: in vivo; conditions: protective, 250 g/ha, evaluated 6 days after inoculation
Protocol: Plasmopara Test (Grapevine)/Protective Solvent: 47 parts by weight of acetone Emulsifier: 3 parts by weight of alkylaryl polyglycol ether To prepare a suitable active compound preparation, 1 part by weight of active compound is mixed with the stated amounts of solvent and emulsifier, and the concentrate is diluted with water to the desired concentration. To test for protective activity, young plants are sprayed with the active compound preparation at the application rate stated. After the spray coating has dried on, the plants are inoculated with an aqueous spore suspension of Plasmopara viticola and then remain for 1 day in an incubation cabinet at approx. 20° C. and a relative atmospheric humidity of 100%. […] The plants are then moistened and placed in an incubation cabinet for 1 day.

[3] = system: Aspergillus Niger; experiment: Minimum inhibitory concentration on malt extract agar; assay type: cell-based; conditions: 2 weeks at 28° C.
Protocol: (§1) To confirm the activity against fungi (Penicillium brevicaule, Chaetomium globosum, Aspergillus Niger), the minimum inhibitory concentrations (MICs) of agents according to the invention are determined:
(§2) Active compounds according to the invention are added in concentrations of from 0.1 mg/l to 5 000 mg/l to an agar prepared using malt extract. […] The MIC is the lowest concentration of active compound at which no growth whatsoever by the microbial species used occurs; it is indicated in the table which follows.

[4] = system: Chaetomium globosum; experiment: as above; assay type: cell-based; conditions: 2 weeks at 28° C.
Protocol: as §1, §2

Structure (SMILES)	Efficacy in % [2] [%]	also measured
C/C(=N/OCc1ccccc1)c1ccc(OC2=NS(=O)(=O)CS2)cc1 [Example 22]	–	destruction [1]: ≥ 90%
O=S1(=O)CSC(Oc2ccc(Cl)c(Cl)c2)=N1 [Example 100]	100	Minimum inhibitory concentrations Aspergillus Niger [3]: 10-100 ppm; Minimum inhibitory concentrations Chaetomium globosum [4]: 10-100 ppm
CC(=O)c1cccc(OC2=NS(=O)(=O)CS2)c1 [Example 40]	95	destruction [1]: ≥ 90%
O=S1(=O)CSC(Oc2cccc(Br)c2)=N1 [Example 119]	91	–
Cc1cccc(OC2=NS(=O)(=O)CS2)c1 [Example 106]	92	–
O=S1(=O)CSC(Oc2ccc(Cl)cc2Cc2ccccc2)=N1 [Example 99]	95	–
O=[N+]([O-])c1ccccc1OC1=NS(=O)(=O)CS1 [Example 128]	94	–
O=S1(=O)CSC(Oc2cccc(Cl)c2Cl)=N1 [Example 101]	97	–
CO/N=C(/c1ccccc1)c1cccc(OC2=NS(=O)(=O)CS2)c1 [Example 41]	100	–
Nc1ccc(OC2=NS(=O)(=O)CS2)c(Cl)c1Cl [Example 14]	100	–
C=CCO/N=C(/c1ccccc1)c1cccc(OC2=NS(=O)(=O)CS2)c1 [Example 42]	100	–
Cc1cc(Cl)cc(OC2=NS(=O)(=O)CS2)c1 [Example 1, 3-(3-chloro-5-methylphenoxy)-1λ^6,4,2-dithiazole-1,1(5H)-dione]	96	Minimum inhibitory concentrations Aspergillus Niger [3]: 10-100 ppm; Minimum inhibitory concentrations Chaetomium globosum [4]: 10-100 ppm
O=S1(=O)CSC(Oc2ccc3oc(=S)sc3c2)=N1 [Example 141]	99	–
O=S1(=O)CSC(Oc2cccc(Cl)c2)=N1 [Example 94]	–	Minimum inhibitory concentrations Aspergillus Niger [3]: 10-100 ppm; Minimum inhibitory concentrations Chaetomium globosum [4]: 10-100 ppm
O=S1(=O)CSC(Oc2ccc(Cl)cc2Cl)=N1 [Example 96]	100	–
CC(C)(C)c1ccc(OC2=NS(=O)(=O)CS2)cc1 [Example 98]	91	–
Cc1ccc(OC2=NS(=O)(=O)CS2)cc1 [Example 105]	100	–
O=C(c1ccccc1)c1cccc(OC2=NS(=O)(=O)CS2)c1 [Example 27]	100	–
C/C(=N/OC(C)(C)C)c1cccc(OC2=NS(=O)(=O)CS2)c1 [Example 28]	100	–
O=S1(=O)CSC(Oc2ccccc2Cl)=N1 [Example 95]	100	–
O=S1(=O)CSC(Oc2c(Cl)cccc2Cl)=N1 [Example 102]	100	–
O=S1(=O)CSC(Oc2ccc(Cl)cc2)=N1 [Example 93]	–	Minimum inhibitory concentrations Aspergillus Niger [3]: 10-100 ppm; Minimum inhibitory concentrations Chaetomium globosum [4]: 10-100 ppm
CC(=O)c1ccc(OC2=NS(=O)(=O)CS2)cc1 [Example 21]	95	–
